# Where a name gives a salt, the structure may show the parent alone. In all, about 2,000 compounds were measured (“fractional viability relative to vehicle”: median about 0.91, lowest 2% from about 0.045 on). This is one part of the list.
# Test system: TYKNU
# Assay: fractional viability relative to vehicle; TYKNU is a high-grade serous ovarian cancer line; higher = less growth inhibition
# Conditions: 72 h
# In short: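 TYKNU control cells or lentiCRISPRv2 knockout derivatives were seeded at 500 cells per well into drug-stamped 384-well plates holding a ~2100-compound library at 2 or 10 μM, in duplicate. Cells were grown at 37 °C in 5% CO2 in RPMI 1640 with 10% FBS, and drug treatment lasted 72 h. Viability was read by Cell Titer Glo luminescence. Duplicate treatment wells were averaged and normalised to duplicate control wells from the same plate position.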
# [1] = 2uM, genotype: DNM1L knockout (sgDNM1L #1)
# [2] = 2uM, genotype: sgCTRLA1 (non-targeting control)
# [3] = 10uM, genotype: DNM1L knockout (sgDNM1L #1)
# [4] = 10uM, genotype: sgCTRLA1 (non-targeting control)
SMILES,fractional viability [1],fractional viability [2],fractional viability [3],fractional viability [4]
C[C@]12CCC3=C4CCC(=O)C=C4CC[C@H]3[C@@H]1CC[C@@]2(O)CC#N [Dienogest],1.02,1.09,0.89,1.05
CCOC(=O)[C@H](CCc1ccccc1)N[C@@H](C)C(=O)N1C(=O)N(C)C[C@H]1C(=O)O [Imidapril HCl],0.976,1.1,0.958,1.17
C[C@@H]1C[C@H]2[C@@H]3CCC4=CC(=O)C=C[C@]4(C)[C@@]3(Cl)[C@@H](O)C[C@]2(C)[C@@]1(OC(=O)c1ccco1)C(=O)CCl [Mometasone furoate],0.849,0.962,0.136,0.477
O=c1oc2cc(O)ccc2s1 [Tioxolone],0.912,1.25,0.872,1.16
COc1cc2ncnc(Nc3cccc(Cl)c3)c2cc1OC [AG-1478 (Tyrphostin AG-1478)],1.49,1.16,0.0996,0.169
CCn1c(-c2nonc2N)nc2c(C#CC(C)(C)O)ncc(OC[C@H]3CCCNC3)c21,0.989,0.936,0.856,0.967
O=S(=O)(O)Oc1ccc(C(c2ccc(OS(=O)(=O)O)cc2)c2ccccn2)cc1 [Sodium Picosulfate],1.05,1.1,0.923,1.01
CCC[C@H](N[C@H]1CCc2cc(F)cc(F)c2C1)C(=O)Nc1cn(C(C)(C)CNCC(C)(C)C)cn1,0.725,0.914,0.899,0.679
CN1C(=O)C(Cc2c[nH]c3ccccc23)NC1=S (stereo unspecified) [Necrostatin-1],0.738,0.974,0.845,0.828
Cc1cc2c(s1)Nc1ccccc1N=C2N1CCN(C)CC1 [Olanzapine],1.14,1.11,0.874,1.04
Cc1ccc(NC(=O)C2(c3ccc4c(c3)OC(F)(F)O4)CC2)nc1-c1cccc(C(=O)O)c1 [VX-809 (Lumacaftor)],0.94,1.12,0.933,1.06
CNC(=O)c1ccc(Nc2ncc(C(F)(F)F)c(NCc3nccnc3N(C)S(C)(=O)=O)n2)cc1,0.702,0.772,0.213,0.179
Cn1cc(/C=C2\C(=O)Nc3cccnc32)c2ccccc21,1.42,1.27,0.871,0.936
CC(C)OC(=O)C(C)(C)Oc1ccc(C(=O)c2ccc(Cl)cc2)cc1 [Fenofibrate],1,1,0.829,0.922
OCCOc1ccc(/C(=C(/CCCl)c2ccccc2)c2ccccc2)cc1 [Ospemifene],0.655,0.988,0.492,0.754
CCN1C[C@H](C)n2c(c(O)c3c(=O)n(Cc4ccc(F)c(Cl)c4)nc(C(=O)NC)c32)C1=O,1.07,1.2,0.793,1.12
CC(=O)c1c(C)c2cnc(Nc3ccc(N4CCNCC4)cn3)nc2n(C2CCCC2)c1=O,0.736,0.864,0.6,0.445
CNC(=O)c1cc(Oc2ccc3nc(N[C@@H]4CCCC[C@H]4O)sc3c2)ccn1,0.703,0.812,0.744,0.659
CC(C)(C)c1ccc(S(=O)(=O)/C=C/C#N)cc1,0.119,0.091,0.0418,0.0217
Cc1cn(-c2cc(NC(=O)c3ccc(C)c(Nc4nccc(-c5cccnc5)n4)c3)cc(C(F)(F)F)c2)cn1 [Nilotinib (AMN-107)],1.42,1.08,1.28,1.05

SMILES,fractional viability [1],fractional viability [2],fractional viability [3],fractional viability [4]
NC(=O)c1ccc(-c2nc(-c3ccccn3)c(-c3ccc4c(c3)OCO4)[nH]2)cc1,1.32,1.08,1.16,0.957
C[C@@H](O[C@H]1OCCN(Cc2n[nH]c(=O)[nH]2)[C@H]1c1ccc(F)cc1)c1cc(C(F)(F)F)cc(C(F)(F)F)c1 [Aprepitant],0.974,1.02,0.426,0.723
CCCNC(=O)Nc1ccc(Oc2ncnc3cc(OC)c(OC)cc23)cc1Cl,1.08,1.12,1.07,1.06
CCCN(CCC)CCc1cccc2c1CC(=O)N2 [Ropinirole HCl],0.814,1.09,0.765,1.1
NC(=O)c1cccc(-c2cccc(OC(=O)NC3CCCCC3)c2)c1,1.01,1.13,0.989,1.06
CC(=O)O[C@H]1C(=O)[C@@]2(C)[C@H]([C@H](OC(=O)c3ccccc3)[C@]3(O)C[C@H](OC(=O)[C@H](O)[C@@H](NC(=O)c4ccccc4)c4ccccc4)C(C)=C1C3(C)C)[C@]1(OC(C)=O)CO[C@@H]1C[C@@H]2O [Paclitaxel],0.266,0.246,0.309,0.349
CN1CCC(Nc2nc(Nc3ccc(Oc4ccccc4)cc3)c3c(=O)[nH]cc(Br)c3n2)CC1,0.131,0.279,0.0286,0.0109
Cn1cnc2c(F)c(Nc3ccc(Br)cc3F)c(C(=O)NOCCO)cc21,0.395,0.437,0.243,0.229
C#Cc1cccc(Nc2ncnc3cc(OCCOC)c(OCCO)cc23)c1,1.01,1.09,0.503,0.545
CC(C)C[C@H](NC(=O)[C@H](Cc1ccccc1)C[C@@H](O)[C@H](Cc1ccccc1)NC(=O)OC(C)(C)C)C(=O)N[C@@H](Cc1ccccc1)C(N)=O,0.749,0.909,0.627,0.653
Nc1nc(N)c(N=O)c(OCC2CCCCC2)n1,0.823,1.12,0.544,0.681
COc1cc2nc(N3CCCC3)nc(NCCCCCN3CCCC3)c2cc1OC,0.426,0.543,0.0312,0.0156
NC(=O)c1cnccn1 [Pyrazinamide],1.03,1.01,0.872,1.06
CSc1nc2cc(Cl)c(Oc3cccc(Cl)c3Cl)cc2[nH]1 [Triclabendazole],1.14,1.11,0.734,0.933
Nc1ccc(-c2ccc3ncc4ccc(=O)n(-c5cccc(C(F)(F)F)c5)c4c3c2)cn1 [Torin 2],0.125,0.114,0.114,0.0945
Cc1cnc(-c2ccccc2C(C)C)nc1NCc1ccc(-n2ccnn2)cc1,1.11,0.946,0.849,0.679
CCCCCCCCCCCCCCCCn1cc[n+](Cc2ccccc2)c1C,0.134,0.104,0.0139,0.00629
CC1(C)S[C@@H]2[C@H](NC(=O)[C@H](N)c3ccccc3)C(=O)N2[C@H]1C(=O)O [Ampicillin sodium],1.06,1.2,0.863,1.12
CC1(C)S[C@@H]2[C@H](NC(=O)[C@H](N)c3ccccc3)C(=O)N2[C@H]1C(=O)O [Ampicillin Trihydrate],0.814,1.07,0.873,0.987

# — the supplement of paper PMC5919970
